The record followed here is the antibiotic and cytotoxicity screens of Wong et al. (2023).

The list shows a part of the results.

One assay deals with HSkMC. Kind of assay: cytotoxicity call (relative viability < 0.9). The settings on record: 10 µM.
Another assay has as its system HepG2. Kind of assay: cytotoxicity call (relative viability < 0.9). The settings on record: 10 µM.
The next assay relates to S. aureus RN4220. Briefly: growth inhibition call (relative growth <= 0.2). As to conditions: 50 µM.

Take `C[C@@H]1CN([C@@H](C)CO)C(=O)c2cccc(NS(=O)(=O)c3cn(C)cn3)c2O[C@@H]1CN(C)Cc1ccncc1`: the cytotoxicity call in the assay on HSkMC and in the assay on HepG2 was “inactive” each time. Further, the growth inhibition call in the assay on S. aureus RN4220 is “inactive”.

Consider `C[C@@H]1CCCCO[C@@H](CN(C)Cc2ccc(Cl)c(Cl)c2)[C@H](C)CN([C@H](C)CO)C(=O)c2cc(NC(=O)Nc3ccccc3)ccc2O1`, for which the cytotoxicity call with HSkMC was “inactive”. In the assay with HepG2, the cytotoxicity call was “active”. In the assay with S. aureus RN4220, the growth inhibition call was “inactive”.

Regarding `C[C@@H]1CN([C@@H](C)CO)S(=O)(=O)c2ccc(C#Cc3cccc(F)c3)cc2O[C@@H]1CN(C)C(=O)CN1CCOCC1`, the cytotoxicity call with HSkMC and with HepG2 was “inactive” each time. The growth inhibition call in the assay with S. aureus RN4220 is “inactive”.

With `C[C@H]1CN([C@@H](C)CO)C(=O)Cc2cc(NC(=O)CCCN(C)C)ccc2O[C@H]1CN(C)S(=O)(=O)c1ccc(F)cc1`, the cytotoxicity call with HSkMC and with HepG2 was “inactive” in each case. Moreover, in the assay on S. aureus RN4220, the growth inhibition call is “inactive”.

With `C=C1CCOC(=O)[C@@H](NC(C)=O)CCCN(O)C(=O)/C=C(\C)CCOC(=O)[C@H](NC(C)=O)CCCN(O)C(=O)/C=C(\C)CCOC(=O)[C@@H](NC(C)=O)CCCN(O)C(=O)C1`, the cytotoxicity call in the assay on HSkMC and in the assay with HepG2 was “inactive” in each case. Also, the growth inhibition call in the assay with S. aureus RN4220 was “inactive”.

As for `COCC#Cc1ccc2c(c1)O[C@@H](CN(C)C(=O)CN(C)C)[C@H](C)CN([C@H](C)CO)S2(=O)=O`, the cytotoxicity call in the assay with HSkMC and with HepG2 was “inactive” in each case. Further, the growth inhibition call in the assay on S. aureus RN4220 was “inactive”.

Take `C[C@H](CO)N1C[C@H](C)[C@H](CN(C)S(=O)(=O)c2ccccc2)Oc2ccc(NC(=O)Cn3cnnn3)cc2CC1=O`: the cytotoxicity call in the assay with HSkMC and in the assay with HepG2 was “inactive” in each case. Besides, the growth inhibition call with S. aureus RN4220 is “inactive”.

`C[C@@H]1CN([C@@H](C)CO)C(=O)c2c(c3ccccc3n2C)-c2ccccc2CO[C@@H]1CN(C)C(=O)Nc1cccc(Cl)c1Cl`: the cytotoxicity call with HSkMC and in the assay on HepG2 was “inactive” throughout. Further, in the assay with S. aureus RN4220, the growth inhibition call was “inactive”.

On to `CNC[C@@H]1OCCCC[C@H](C)Oc2ccc(NC(=O)c3ccncc3)cc2C(=O)N([C@@H](C)CO)C[C@H]1C`, for which the cytotoxicity call with HSkMC and in the assay on HepG2 was “inactive” in each case. Besides, the growth inhibition call with S. aureus RN4220 was “inactive”.

Take `COc1ccc(CN(C)C[C@H]2OCCCC[C@@H](C)Oc3ccc(NC(=O)Nc4c(C)noc4C)cc3C(=O)N([C@@H](C)CO)C[C@H]2C)cc1`: the cytotoxicity call with HSkMC and in the assay with HepG2 was “inactive” in each case. Besides, the growth inhibition call in the assay on S. aureus RN4220 is “inactive”.

For the compound `C[C@@H]1CCCCO[C@H](CN(C)Cc2ccncc2)[C@@H](C)CN([C@H](C)CO)C(=O)c2cc(NC(=O)CCC(F)(F)F)ccc2O1`, the cytotoxicity call in the assay with HSkMC and in the assay with HepG2 was “inactive” each time. Besides, the growth inhibition call in the assay with S. aureus RN4220 was “inactive”.

As to `Cc1noc(C)c1NC(=O)Nc1ccc2c(c1)C(=O)N([C@@H](C)CO)C[C@@H](C)[C@H](CN(C)CC1CCCCC1)OCCCC[C@H](C)O2`, the cytotoxicity call with HSkMC and in the assay on HepG2 was “inactive” each time. The growth inhibition call with S. aureus RN4220 is “inactive”.

As to `CN1C[C@H](C#N)CC1=O`, the cytotoxicity call with HSkMC and in the assay on HepG2 was “inactive” each time. Moreover, the growth inhibition call in the assay on S. aureus RN4220 was “inactive”.

Regarding `CC(=O)N1CC(=O)N(c2cnn(C)c2)C[C@]12CCN(C(=O)N(C)C)C2`, the cytotoxicity call in the assay on HSkMC and in the assay with HepG2 was “inactive” throughout. Further, in the assay on S. aureus RN4220, the growth inhibition call is “inactive”.

Take `Cc1noc(C)c1NC(=O)Nc1ccc2c(c1)CC(=O)N([C@H](C)CO)C[C@@H](C)[C@H](CN(C)Cc1ccc(Oc3ccccc3)cc1)O2`: the cytotoxicity call with HSkMC and in the assay with HepG2 was “inactive” throughout. In addition, in the assay with S. aureus RN4220, the growth inhibition call is “inactive”.

Take `O=C(CN1CCOCC1)NCC[C@@H]1CC[C@@H](NS(=O)(=O)c2ccc(Cl)cc2)[C@@H](CO)O1`: the cytotoxicity call with HSkMC and with HepG2 was “inactive” throughout. In the assay on S. aureus RN4220, the growth inhibition call is “inactive”.

Turning to `C[C@H]1CN([C@@H](C)CO)C(=O)Cc2cc(NC(=O)Nc3ccc(F)cc3)ccc2O[C@@H]1CN(C)S(=O)(=O)c1cn(C)cn1`, the cytotoxicity call in the assay with HSkMC and in the assay with HepG2 was “inactive” each time. Besides, in the assay on S. aureus RN4220, the growth inhibition call was “inactive”.

On to `C[C@@H]1CN([C@@H](C)CO)C(=O)c2cc(NS(=O)(=O)c3ccccc3)ccc2O[C@@H](C)CCCCO[C@H]1CN(C)C(=O)Nc1ccc(C(F)(F)F)cc1`, for which the cytotoxicity call in the assay with HSkMC and in the assay with HepG2 was “inactive” throughout. In the assay on S. aureus RN4220, the growth inhibition call was “inactive”.

Consider `C[C@H](CO)N1C[C@H](C)[C@H](CN(C)C(=O)Nc2ccc(F)cc2)OCCCC[C@H](C)Oc2ccc(NC(=O)Nc3ccc(F)cc3)cc2C1=O`, for which the cytotoxicity call in the assay on HSkMC and in the assay with HepG2 was “inactive” each time. Besides, the growth inhibition call with S. aureus RN4220 is “inactive”.

As for `C[C@@H]1CN([C@H](C)CO)C(=O)Cc2cc(NC(=O)C3CC3)ccc2O[C@@H]1CN(C)C(=O)Nc1ccccc1`, the cytotoxicity call with HSkMC and with HepG2 was “inactive” each time. Moreover, the growth inhibition call with S. aureus RN4220 was “inactive”.

`COc1ccc(NC(=O)N(C)C[C@H]2Oc3ncc(C#C[C@H](C)O)cc3C(=O)N([C@H](C)CO)C[C@H]2C)cc1`: the cytotoxicity call with HSkMC and in the assay on HepG2 was “inactive” each time. In addition, the growth inhibition call with S. aureus RN4220 is “inactive”.

Regarding `OC[C@@H](O)[C@@H](O)[C@@H](O)[C@@H](O)[C@@H](O)CO`, the cytotoxicity call with HSkMC and in the assay with HepG2 was “inactive” throughout. Also, the growth inhibition call in the assay on S. aureus RN4220 was “inactive”.

In the case of `Nc1ccc(C(=O)[O-])cc1.[K+]`, the cytotoxicity call in the assay on HSkMC (human skeletal muscle cells) and in the assay on HepG2 was “inactive” throughout. In addition, the growth inhibition call in the assay on S. aureus RN4220 is “inactive”.

In the case of `C[C@H]1CN([C@@H](C)CO)C(=O)CCCn2nncc2CO[C@H]1CN(C)S(=O)(=O)c1ccc(C#N)cc1`, the cytotoxicity call with HSkMC and in the assay with HepG2 was “inactive” in each case. Besides, the growth inhibition call in the assay with S. aureus RN4220 was “inactive”.

Consider `C[C@@H]1CCCCO[C@@H](CN(C)Cc2ccc(C(F)(F)F)cc2)[C@@H](C)CN([C@@H](C)CO)C(=O)c2cc(NC(=O)NC3CCCCC3)ccc2O1`, for which the cytotoxicity call with HSkMC and with HepG2 was “active” in each case. For the same compound, the growth inhibition call with S. aureus RN4220 was “inactive”.

Consider `Cc1cc(O)c(C(C)C)cc1Cl`, for which the cytotoxicity call with HSkMC and with HepG2 was “inactive” in each case. For the same compound, in the assay with S. aureus RN4220, the growth inhibition call is “inactive”.

Regarding `COCC(=O)N(C)C[C@@H]1Oc2cc(C#C[C@@H](C)O)ccc2S(=O)(=O)N([C@@H](C)CO)C[C@@H]1C`, the cytotoxicity call with HSkMC and in the assay on HepG2 was “inactive” in each case. In the assay on S. aureus RN4220, the growth inhibition call was “inactive”.
